# Test results as given in PubChem BioAssay AID493208 (National Center for Advancing Translational Sciences (NCATS), 2011).
# The whole screen tested about 44,000 compounds, of which about 340 (0.77%) were called active. Not shown: some 5% with an inconclusive outcome. The call rests on the fitted dose curve; in most records, active means well fitted inhibition curve with a large enough effect; inconclusive means small, poorly fitted or top-dose-only effect; inactive means flat fitted curve, though single readings scatter. Some of the results follow.
# Test: Acumen qHTS Assay for Inhibitors of the mTORC1 Signaling Pathway in MEF (Tsc2-/-, p53-/-) Cells: Sytravon; further: nearly all actives have a fitted effect of over 50% in size;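 on activity change, negative = inhibition: plate controls were DMSO for no effect and rapamycin for full effect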
# Details: phospho-rpS6 immunofluorescence/PI, 24 h; series mostly up to 38.3 µM; activity change, negative = inhibition: at the top concentration
# Outline: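 Cell-based qHTS: Tsc2-/- p53-/- MEF, 24 h cpd, 37 °C; fix/perm, anti-phospho-S6 Alexa-488 + PI; Acumen 488 nm scan; pS6/PI ratio, % positive cells; rapamycin 7.5 nM = inhibition ref; PI count = viability.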
# Potency means the concentration at half of the fitted maximal effect.
Structure (SMILES),"activity change, negative = inhibition",Potency
CCOC(=O)c1sc2ccccc2c1S(=O)(=O)N1CCN(c2ccccc2F)CC1,inactive: -12.9%,–
COc1ccc(C)cc1NC(=O)CN1C(=O)CSc2ccc(S(=O)(=O)N3CCCC3)cc21,inactive: -1.81%,–
CC1=C(c2cccc(Cl)c2)S(=O)(=O)NC1=NCc1ccccc1C,inactive: -6.65%,–
CCC(=O)N1CCc2cc(S(=O)(=O)N3CCN(c4ccccc4F)CC3)ccc21,inactive: -2.56%,–
COc1cc(OC)c(NC(=O)Cn2nc(C)n3cccc3c2=O)cc1Cl,inactive: 5.1%,–
COc1ccc(-c2cn3nc(N4CCC(C(=O)NCc5cccc(Cl)c5)CC4)sc3n2)cc1,inactive: -8.78%,–
COc1cc(-c2noc(-c3ccc(N4CCCC4)c([N+](=O)[O-])c3)n2)cc(OC)c1OC,inactive: -1.05%,–
CC(=O)N1CCc2c(sc3c2c(=O)n(Cc2ccccc2)c(=O)n3Cc2cccc(Cl)c2)C1,inactive: -0.153%,–
Cc1ccccc1Cn1cnc2c(oc3ccccc32)c1=O,inactive: 7.59%,–
CCC(=O)N1CCc2cc(CNC(=O)Cc3ccc(OC)c(OC)c3)ccc21,inactive: 1.95%,–
CC1=Nc2cc(C(=O)NC3CCC(C)CC3)ccc2Sc2c(C)ccc(C)c21 (centres undefined),inactive: -10.5%,–
COc1cc(C(=O)N2CCc3c([nH]c4ccccc34)C2c2ccc(F)cc2)cc(OC)c1OC (centres undefined),inactive: -7.86%,–
COc1ccc(NC(=O)c2ccc3c(c2)N(Cc2cccc(Cl)c2)C(=O)c2ccccc2S3(=O)=O)cc1Cl,inactive: -3.63%,–
CCN(CC)C(=O)Cn1ncc2c([nH]c3ccc(C)cc32)c1=O,inactive: 4.6%,–
CCOc1ccccc1CNC(=O)C1CCN(C(=O)N2CCOc3ccc(Cl)cc32)CC1,inactive: 3.5%,–
Cc1ccc(-n2nc(C(=O)NCc3ccc(F)cc3Cl)c3c4ccccc4n(C)c3c2=O)cc1,inactive: -1.46%,–
FC(F)(F)c1ccc2c(c1)ncc1c(-c3ccccc3)nn(-c3ccccc3)c12,inactive: -1.06%,–
Cc1cn2c(=O)cc(COC(=O)c3cccc(NC(=O)COc4ccccc4)c3)nc2s1,inactive: 7.38%,–
CCOC(=O)c1c(NC(=O)CSc2cn(CCNC(=O)c3ccc(OC)c(OC)c3)c3ccccc23)sc2c1CCC2,inactive: -16.8%,–
Cc1cccc(N2CCN(c3nc4ccc(C(=O)c5ccccc5)cc4n4cnnc34)CC2C)c1 (centres undefined),inactive: 0%,–
Cc1cc(C)n2nc(-c3ccc(Cl)cc3)nc2n1,inactive: -3.6%,–
COc1ccc(OC)c(NC(=O)c2oc3c(c2C)-c2nn(Cc4ccc(Cl)cc4)cc2CC3)c1,inactive: -4.97%,–
CC(C)Oc1ccc(CNC(=O)c2ccc(CS(=O)Cc3ccccc3Cl)o2)cc1 (centres undefined),inactive: -15.1%,–
CC(=O)Nc1ccc(NC(=O)Cn2cc3c(n2)CCCCC3)cc1,inactive: -4.92%,–

Structure (SMILES),"activity change, negative = inhibition",Potency
Cc1ccc2c(CC(=O)N3CCN(c4cccc(Cl)c4)CC3)coc2c1C,inactive: -3%,–
COC(=O)CN1C(=O)CSc2ccc(S(=O)(=O)Nc3ccccc3)cc21,inactive: -1.82%,–
Cc1cccc(OCCSc2nc3ccc(NC(=O)COc4ccccc4C)cc3s2)c1,inactive: -0.735%,–
COCCN(Cc1ccco1)C(=O)c1cc2c(Cl)nc3ccc(C)cc3c2s1,inactive: 0.139%,–
COc1ccc(NC(=O)Cn2nc(SC)c(S(=O)(=O)c3ccc(C)cc3)c2N)cc1OC,inactive: 7.05%,–
CCN(CC)CCCNC(=O)CSc1nc2nc(C)c(Cc3ccccc3C)c(C)n2n1,inactive: 0.775%,–
O=C(Nc1c(Cl)cccc1Cl)c1cccc2c1C(=O)N(C1CCCCC1)C2,inactive: 0.768%,–
O=C(O)c1ccc2oc(=O)n(Cc3ccccc3)c2c1,inactive: 0%,–
COc1ccc(-n2nc(C(=O)NCCCOC(C)C)c3c4ccccc4n(C)c3c2=O)cc1,inactive: -10.5%,–
Fc1ccccc1N1CCN(c2ncnc3c2nc2n3CCCCC2)CC1,inactive: -2.69%,–
COc1ccc(C2C(=O)N(C3CCC(C)CC3)CC(=O)N2C2CCCCC2)cc1OC (centres undefined),inactive: 7.9%,–
CCC(=O)N1CCc2cc(Br)cc(S(=O)(=O)CCC(=O)N(C)c3cccc(C)c3)c21,inactive: 3.83%,–
CCOc1ccc(NC(=O)CC2C(=O)N(c3ccc(F)cc3)C(=O)N2CCc2sccc2C)cc1 (centres undefined),inactive: 0.0451%,–
COc1ccc(CNc2nc3c(-c4ccc(C)cc4)nnn3c3ccccc23)cc1,inactive: -8.17%,–
CCOC(=O)c1cc2c(=O)n3ccccc3nc2n(CCCOC)c1=NC(=O)c1c(-c2ccccc2Cl)noc1C,inactive: 0.757%,–
CCCS(=O)(=O)NCCc1csc2nc(-c3ccc(C)cc3)nn12,inactive: 1.1%,–
CCOc1ccc(NC(=O)C2CCCN(c3nn4cc(-c5ccc(OC)cc5)nc4s3)C2)cc1 (centres undefined),inactive: -7.6%,–
Cc1nc2nc(C)c(NS(=O)(=O)c3ccc(F)cc3)c(=O)n2[nH]1,inactive: -3.36%,–
O=C(Cn1cnc(S(=O)(=O)N2CCCC2)c1)Nc1cccc(F)c1,inactive: 5.79%,–
Cc1ccccc1OCCCn1c(CCNC(=O)C2CCCCC2)nc2ccccc21,inactive: -0.418%,–
CN(C(=O)Cn1c(=O)n(CCC(=O)NCc2ccc3c(c2)OCO3)c(=O)c2sccc21)c1ccccc1,inactive: 4.22%,–
Cc1ccc(-n2ncc(C(=O)N3CCN(C4CCCCC4)CC3)c2C2CCN(C(=O)OC(C)(C)C)CC2)cc1C,inactive: 6.1%,–
Cc1ccc(NC(=O)c2sc3nc4n(c(=O)c3c2C)CCCCC4)c(Br)c1,inactive: 0.597%,–
O=C1CC(c2nc3ccccc3n2CCC2CCCCC2)CN1c1ccccc1Cl (centres undefined),inactive: -0.59%,–

Structure (SMILES),"activity change, negative = inhibition",Potency
Cc1cccc(N2CCN(C(=O)CCCn3c(=O)[nH]c4ccsc4c3=O)CC2)c1C,inactive: -9.67%,–
CCCCCCc1c(C)c2c(cc(C)c3c(C)c(C)oc32)oc1=O,inactive: -16.1%,–
Oc1c(C(c2ccccc2F)N2CCC3(CC2)OCCO3)sc2nc(-c3ccco3)nn12 (centres undefined),inactive: -1.72%,–
CC(=O)c1cccc(NC(=O)C2=CC(c3ccc(F)cc3)=NS(=O)(=O)N2C)c1,inactive: -6.52%,–
CCCCN(C(=O)Nc1ccc(Cl)cc1)C1CCN(C(C)=O)CC1,inactive: -16.7%,–
O=C(NC1CCCCC1)c1ccc(CSc2nc3ccncc3n2Cc2ccccc2)cc1,inactive: -3.04%,–
COC(=O)c1cc2oc3ccccc3c2n1CC(=O)Nc1ccc(OC)c(OC)c1,inactive: -4.18%,–
COc1ccc(OC)c(CNC(=O)c2ccc(Sc3ccc(Cl)cc3)c(NC(C)=O)c2)c1,inactive: 13.4%,–
O=C(NCCc1ccccc1)c1ccc(Cn2c(=O)c3cccn3c3cccnc32)cc1,inactive: 0.835%,–
Cc1ccc2onc(CC(=O)N3CCN(c4ccc(Cl)cc4)CC3)c2c1,inactive: 2.37%,–
Cc1ccc(NC(=O)Cn2c(=O)n(CCCC(=O)NCc3ccc4c(c3)OCO4)c(=O)c3ccccc32)cc1,inactive: -14.6%,–
CCOc1cc(C2C(C(=O)Nc3ccccc3)=C(C)Nc3ncnn32)cc(Br)c1O (centres undefined),inactive: 1.79%,–
COc1ccc(NC(=O)CN2C(=O)CSc3ccc(S(=O)(=O)N(C)C)cc32)cc1OC,inactive: -15.6%,–
Cc1cc2c(cc1S(=O)(=O)N(CCO)Cc1ccccc1)OCC(=O)N2,inactive: -6.13%,–
CCNS(=O)(=O)c1cc(-c2nnc(Nc3cccc(C(F)(F)F)c3)c3ccccc23)ccc1C,–,active: 18.5 µM
Cc1ccc(NC(=O)Cn2c(CCC(=O)O)ccc2-c2cccs2)cc1Cl,inactive: -2.41%,–
CCc1cccc(CC)c1N(COC)C(=O)Cn1c(CC)nc2ccccc21,inactive: -5.93%,–
Cc1ccc(C)c(NC(=O)CCS(=O)(=O)c2cccc3nsnc23)c1,inactive: -3.85%,–
Cn1c(=O)oc2cc(S(=O)(=O)N3CCCC(C(=O)N4CCN(c5ccc(Cl)cc5)CC4)C3)ccc21 (centres undefined),inactive: -2.15%,–
CCc1ccc2nc(N3CCN(C(=O)c4ccccc4)CC3)sc2c1,inactive: -4.22%,–
Cc1ccc(C)c(N2CCN(C(=O)C3CCN(S(=O)(=O)c4ccc5[nH]c(=O)oc5c4)CC3)CC2)c1,inactive: -11.1%,–
Cc1ccc(CNC(=O)c2cccc(N3CCCS3(=O)=O)c2)cc1,inactive: 1.1%,–
COC(=O)c1cccc(NC(=O)N(C)CCc2c(C)nn(C)c2C)c1,inactive: 0%,–
CN(C(=O)CSc1nc2ccc(NC(=O)c3ccccc3F)cc2s1)c1ccccc1,inactive: -6.48%,–

Structure (SMILES),"activity change, negative = inhibition",Potency
CCCCn1cc(S(=O)(=O)c2ccc(OCC)cc2)c(=O)c2cc(OC)c(OC)cc21,inactive: -2.58%,–
CCc1ccc(-n2nc3ccc(NC(=O)c4cc(Cl)c(OC)c(Cl)c4)cc3n2)cc1,inactive: 13.8%,–
CCOc1ccc(C2C(=O)N(C3CCCCCC3)CC(=O)N2CCC2=CCCCC2)cc1OC (centres undefined),inactive: 3.65%,–
CCOc1ccc(CNC(=O)Cn2nc(C)n3cccc3c2=O)cc1,inactive: -2.38%,–
Cc1ccc(NC(=O)CN(CCc2ccccc2)S(=O)(=O)c2ccccc2)c(C)c1,inactive: 0.894%,–
Cc1ccc(CNC(=O)Cn2c(=O)n(Cc3ccccc3)c(=O)c3c2c2cc(C)ccc2n3C)cc1,inactive: -6.12%,–
COc1ccc(CN2CCc3nc(Nc4ccccc4)ncc3C2)c(OC)c1OC,inactive: 0%,–
COc1cc(N2C(=O)CSC23C(=O)N(C)c2ccccc23)cc(OC)c1OC (centres undefined),inactive: 2.08%,–
COCCN1Cc2cccc(C(=O)Nc3ccc(C)c(F)c3)c2C1=O,inactive: 0.763%,–
Cc1cc(C)cc(NC(=O)C(=O)NCC(c2ccc3c(c2)OCO3)N2CCOCC2)c1 (centres undefined),inactive: 0.287%,–
Fc1ccc(-c2cc(-c3nc(-c4ccccc4)no3)[nH]n2)cc1,inactive: 7.55%,–
COc1ccc(Nc2nc3c(S(=O)(=O)c4ccccc4)nnn3c3ccc(Cl)cc23)c(OC)c1,inactive: -5.92%,–
CC(C)c1ccc(NC(=O)c2cn(C3CCCCC3)c(=O)c3c2c2ccccc2n3C)cc1,inactive: -11.7%,–
Cc1ccccc1NC(=O)N1CCc2cc(S(=O)(=O)N3CCC(C)CC3)ccc21,inactive: -0.666%,–
Cc1ccccc1CNC(=O)c1cccc(NC(=O)c2nsc3ccccc23)c1,inactive: 1.22%,–
COc1ccc(-c2nc(C)c(CCNC(=O)c3ccc(F)c(F)c3)s2)cc1,inactive: -3.82%,–
COc1ccccc1C1=NS(=O)(=O)N(C)C(C(=O)Nc2cc(OC)c(OC)c(OC)c2)=C1,inactive: 0.228%,–
Cc1nc2nc(SCC(=O)Nc3cccc(Cl)c3)nn2c(C)c1Cc1ccccc1,inactive: -14.4%,–
CCCCn1c(=N)c(S(=O)(=O)c2ccccc2)cc2c(=O)n3cccc(C)c3nc21,inactive: 9.04%,–
CC(C)Cn1cc(NC(=O)NCc2ccccc2)c2ccccc2c1=O,inactive: 2.57%,–
Cc1ccc2c(c1)c1c(c(=O)n(-c3cccc(Cl)c3)c(=O)n1CC(=O)c1ccc(Cl)cc1)n2C,inactive: 0%,–
COc1ccc(N2C(=O)CSC23C(=O)N(Cc2ccccc2F)c2ccccc23)cc1Cl (centres undefined),inactive: -10.1%,–
